# In patent EP4563146A1 (IRBM S.P.A., priority 2023, dated 2025):
# Molecular target: ZIKV NS2B-G4SG4-NS3 serine protease (Zika virus, UniProt A0A024B7W1, R1467A/R1531G)
# Assay: ZIKV protease inhibition assay
# Assay type: biochemical
# Details: not given
row,SMILES,IC50 [nM]
1,"CN(C)C[C@H]1CC[C@H]([n+]2cc([N-]C(=O)Nc3cc(NC(=O)C(F)(F)CN4CCCC4)cc(C(F)(F)F)c3)on2)CC1 [Example 160, ((3-(2,2-Difluoro-3-(pyrrolidin-1-yl)propanamido)-5-(trifluoromethyl)phenyl)-carbamoyl)(3-((1R,4R)-4-((dimethylamino)-methyl)cyclohexyl)-1,2,3-oxadiazol-3-ium-5-yl)amide]",1000 to 20000
2,"CN(C)C[C@H]1CC[C@H]([n+]2cc([N-]C(=O)Nc3cc(NC(=O)Cc4cn(C)c5ccccc45)cc(C(F)(F)F)c3)on2)CC1 [Example 161, (3-((1R,4R)-4-((dimethylamino)methyl)-cyclohexyl)-1,2,3-oxadiazol-3-ium-5-yl)((3-(2-(1-methyl-1H-indol-3-yl)acetamido)-5-(trifluoromethyl)phenyl)carbamoyl)amide]",1000 to 20000
3,"CN(C)C[C@H]1CC[C@H]([n+]2cc([N-]C(=O)Nc3cc(NC(=O)Cc4cccc(CC(N)=O)c4)cc(C(F)(F)F)c3)on2)CC1 [Example 162, ((3-(2-(3-(2-Amino-2-oxoethyl)phenyl)-acetamido)-5-(trifluoromethyl)phenyl)-carbamoyl)(3-((1R,4R)-4-((dimethylamino)-methyl)cyclohexyl)-1,2,3-oxadiazol-3-ium-5-yl)amide]",100 to 1000
4,"CC(C(=O)Nc1cc(NC(=O)[N-]c2c[n+]([C@H]3CC[C@H](CN(C)C)CC3)no2)cc(C(F)(F)F)c1)c1ccccc1 (stereo partly drawn) [Example 164, (3-((1R,4R)-4-((Dimethylamino)methyl)-cyclohexyl)-1,2,3-oxadiazol-3-ium-5-yl)((3-(2-phenylpropanamido)-5-(trifluoromethyl)phenyl)-carbamoyl)amide]",< 100
5,"CN(C)C[C@H]1CC[C@H]([n+]2cc([N-]C(=O)Nc3cc(NC(=O)Cc4ccccc4C(F)(F)F)cc(C(F)(F)F)c3)on2)CC1 [Example 166, (3-((1R,4R)-4-((Dimethylamino)methyl)-cyclohexyl)-1,2,3-oxadiazol-3-ium-5-yl)((3-(trifluoromethyl)-5-(2-(2-(trifluoromethyl)-phenyl)acetamido)phenyl)carbamoyl)amide]",100 to 1000
6,"CC(C(=O)N(C)c1cc(NC(=O)[N-]c2c[n+]([C@H]3CC[C@H](CN(C)C)CC3)no2)cc(C(F)(F)F)c1)c1ccccc1 (stereo partly drawn) [Example 167, (3-((1R,4R)-4-((Dimethylamino)methyl)-cyclohexyl)-1,2,3-oxadiazol-3-ium-5-yl)((3-(N-methyl-2-phenylpropanamido)-5-(trifluoromethyl)phenyl)carbamoyl)amide]",1000 to 20000
7,"CN(C)C[C@H]1CC[C@H]([n+]2cc([N-]C(=O)Nc3cc(NC(=O)Cc4cccc(F)c4F)cc(C(F)(F)F)c3)on2)CC1 [Example 169, ((3-(2-(2,3-Difluorophenyl)acetamido)-5-(trifluoromethyl)phenyl)carbamoyl)(3-((1R,4R)-4-((dimethylamino)methyl)cyclohexyl)-1,2,3-oxadiazol-3-ium-5-yl)amide]",< 100
8,"C[C@H](C(=O)Nc1cc(NC(=O)[N-]c2c[n+]([C@H]3CC[C@H](CN(C)C)CC3)no2)cc(C(F)(F)F)c1)c1ccccc1 [Example 170, (3-((1R,4S)-4-((Dimethylamino)methyl)-cyclohexyl)-1,2,3-oxadiazol-3-ium-5-yl)((3-((S)-2-phenylpropanamido)-5-(trifluoromethyl)-phenyl)carbamoyl)amide]",< 100
9,"CN(C)C[C@H]1CC[C@H]([n+]2cc([N-]C(=O)Nc3cc(N(C)C(=O)Cc4ccccc4)cc(C(F)(F)F)c3)on2)CC1 [Example 172, (3-((1R,4R)-4-((Dimethylamino)methyl)-cyclohexyl)-1,2,3-oxadiazol-3-ium-5-yl)((3-(N-methyl-2-phenylacetamido)-5-(trifluoromethyl)-phenyl)carbamoyl)amide]",1000 to 20000
10,"C[C@@H](C(=O)Nc1cc(NC(=O)[N-]c2c[n+]([C@H]3CC[C@H](CN(C)C)CC3)no2)cc(C(F)(F)F)c1)c1ccccc1 [Example 175, (3-((1R,4R)-4-((Dimethylamino)methyl)-cyclohexyl)-1,2,3-oxadiazol-3-ium-5-yl)((3-((R)-2-phenylpropanamido)-5-(trifluoromethyl)-phenyl)carbamoyl)amide]",100 to 1000
11,"CN(C)C[C@H]1CC[C@H]([n+]2cc([N-]C(=O)Nc3cc(NC(=O)Cc4cccc(Cl)c4)cc(C(F)(F)F)c3)on2)CC1 [Example 176, ((3-(2-(3-Chlorophenyl)acetamido)-5-(trifluoromethyl)phenyl)carbamoyl)(3-((1R,4R)-4-((dimethylamino)methyl)cyclohexyl)-1,2,3-oxadiazol-3-ium-5-yl)amide]",100 to 1000
12,"O=C([N-]c1c[n+](C[C@H]2CC[C@@H](c3cncnc3)CC2)no1)Nc1cccc(C(F)(F)F)c1 [Example 179, (3-(((1S,4S)-4-(Pyrimidin-5-yl)cyclohexyl)-methyl)-1,2,3-oxadiazol-3-ium-5-yl)((3-(trifluoromethyl)phenyl)carbamoyl)amide]",1000 to 20000
13,"O=C([N-]c1c[n+](C[C@H]2CC[C@@H](c3cncnc3)CC2)no1)Nc1ccnc(C(F)(F)F)c1 [Example 182, (3-(((1S,4S)-4-(Pyrimidin-5-yl)cyclohexyl)methyl)-1,2,3-oxadiazol-3-ium-5-yl)((2-(trifluoromethyl)pyridin-4-yl)carbamoyl)amide]",1000 to 20000

# Same assay, conditions: 1.25 nM enzyme, 10 µM Bz-Nle-KRR-AMC substrate, 25 °C; read-out: Zika - NS3 protease
row,SMILES,IC50 [nM]
1,"CN(C)C[C@H]1CC[C@H]([n+]2cc([N-]C(=O)Nc3cc(NC(=O)Cc4cccc(CN)c4)cc(C(F)(F)F)c3)on2)CC1 [Example 163, ((3-(2-(3-(Aminomethyl)phenyl)acetamido)-5-(trifluoromethyl)phenyl)carbamoyl)(3-((1R,4R)-4-((dimethylamino)methyl)cyclohexyl)-1,2,3-oxadiazol-3-ium-5-yl)amide]",100 to 1000
2,"CCC(C(=O)Nc1cc(NC(=O)[N-]c2c[n+]([C@H]3CC[C@H](CN(C)C)CC3)no2)cc(C(F)(F)F)c1)c1ccccc1 (stereo partly drawn) [Example 165, (3-((1R,4R)-4-((Dimethylamino)methyl)-cyclohexyl)-1,2,3-oxadiazol-3-ium-5-yl)((3-(2-phenylbutanamido)-5-(trifluoromethyl)phenyl)-carbamoyl)amide]",< 100
3,"CN(C)C[C@H]1CC[C@H]([n+]2cc([N-]C(=O)Nc3cc(NC(=O)Cc4ccccc4Cl)cc(C(F)(F)F)c3)on2)CC1 [Example 168, ((3-(2-(2-Chlorophenyl)acetamido)-5-(trifluoromethyl)phenyl)carbamoyl)(3-((1R,4R)-4-((dimethylamino)methyl)cyclohexyl)-1,2,3-oxadiazol-3-ium-5-yl)amide]",< 100
4,"Cc1ccccc1CC(=O)Nc1cc(NC(=O)[N-]c2c[n+]([C@H]3CC[C@H](CN(C)C)CC3)no2)cc(C(F)(F)F)c1 [Example 171, (3-((1R,4R)-4-((Dimethylamino)methyl)-cyclohexyl)-1,2,3-oxadiazol-3-ium-5-yl)((3-(2-(o-tolyl)acetamido)-5-(trifluoromethyl)phenyl)-carbamoyl)amide]",< 100
5,"CN(C)C[C@H]1CC[C@H]([n+]2cc([N-]C(=O)Nc3cc(NC(=O)C4CCCc5ccccc54)cc(C(F)(F)F)c3)on2)CC1 (stereo partly drawn) [Example 177, (3-((1R,4R)-4-((Dimethylamino)methyl)-cyclohexyl)-1,2,3-oxadiazol-3-ium-5-yl)((3-(1,2,3,4-tetrahydronaphthalene-1-carboxamido)-5-(trifluoromethyl)phenyl)carbamoyl)amide]",100 to 1000
